#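 Values below derive from 48-hour exposures of cells grown in 96-well plates, with endpoints linearly interpolated between the two concentrations bracketing the appropriate inhibition level. The concentration for 50% growth inhibition is given as GI50.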 Active and inactive are the calls of the source. Cut-off read from the data, not from the text of the source: active = GI50 up to about 1.1 µM and inactive = higher.
# Test system: NCI-H322M
# Assay: NCI-60 cell line screen, 48 h
row,Structure (SMILES),GI50
1,Cn1c2ccccc2c2c3c(c4c5ccccc5n(C)c4c21)C(=O)NC3=O,inactive: > 47.4 µM
2,O=C(O)c1[nH]c2c([N+](=O)[O-])cc([N+](=O)[O-])cc2c1C(=O)O,inactive: > 100 µM
3,CC1CCN(CC(=O)N2c3ccccc3Sc3cc4ccccc4cc32)CC1,inactive: > 100 µM
4,CCOC(=O)/C(=C\c1ccc[nH]1)C(=O)c1ccccc1,inactive: > 100 µM
5,C(=N\c1ccc(-c2nc3ccccc3s2)cc1)/c1ccco1,inactive: 89.7 µM
6,COc1ccc([C@@H]2OC(=O)C3C2C(=O)O[C@H]3c2ccc(OC)c(OC)c2)cc1OC (stereo partly drawn),inactive: > 100 µM
7,O=C(Nc1ccc(Cl)c(Cl)c1)C(=O)C(C1OC(=O)c2ccccc21)[N+](=O)[O-] (stereo not drawn),inactive: > 100 µM
8,CC#CC(=O)SCCNC(=O)CC,inactive: > 10 µM
9,CCOC(=O)CCC(NC(=O)c1ccc(Oc2nc3ccc(C(F)(F)F)cc3nc2-c2ccccc2)cc1)C(=O)OCC (stereo not drawn),inactive: 48.3 µM
10,CC(=O)C(C)(C)CCC(C)(C)C(C)=O,inactive: > 100 µM
11,COc1ccccc1OCC(=N/NC(=O)c1ccncc1)/N=C/c1cccnc1,inactive: > 100 µM
12,CC(C)NC(=O)OCCN=C1c2ccccc2C(Br)C(Br)c2ccccc21 (stereo not drawn),inactive: 30.9 µM
13,Cc1ccc(C(=O)/C=C/c2ccccc2O)c(C)c1,inactive: > 100 µM
14,OC12CC3c4ccccc4NC3C3Oc4cccc5c4C31CCN(CC1CC1)C2C5 (stereo not drawn),inactive: 15.7 µM
15,O=C(CCc1cc(O)cc(O)c1)NCCc1cc(O)cc(OCc2ccccc2)c1,inactive: 43.6 µM
16,O=c1[nH]nc(-c2ccccc2)n1/N=C\CC/C=N\n1c(-c2ccccc2)n[nH]c1=O,inactive: > 89.1 µM
17,O=C(NNC(=O)c1ccccc1O)c1cccs1,inactive: 65.9 µM

row,Structure (SMILES),GI50
1,CCOc1ccccc1NC(=O)C(=O)c1c(O)c2ccc(O)cc2oc1=O,inactive: > 100 µM
2,OC(c1ccccc1)c1c(-c2ccccc2)[nH]c(-c2ccccc2)c1C(O)c1ccccc1 (stereo not drawn),inactive: 4.65 µM
3,COc1ccc(C2NC(=O)Nc3c2c(=O)oc2c3ccc3ccccc32)cc1 (stereo not drawn),inactive: 35.9 µM
4,CCN(CC)CCSc1c(C(C)=O)c(=O)n(-c2ccccc2)c(=S)n1-c1ccccc1,inactive: 44.1 µM
5,[O-][S+](CC1(O)CCCCC1)c1ccccc1 (stereo not drawn),inactive: > 100 µM
6,O=C1OCCC1(Cc1ccc(Cl)cc1)Cc1ccc(Cl)cc1,inactive: > 100 µM
7,CCOP(=O)(OCC)/C(=C\n1c(=S)[nH]c2cc(C)ccc21)C(=O)OC,inactive: > 100 µM
8,CCOC(=O)C1=C(C(=O)OCC)C2c3ccccc3C=CN2C(C(=O)OCC)=C(SC)S1 (stereo not drawn),inactive: > 100 µM
9,CCOC(=O)C(Br)(C(N)=O)C1(O)OC(c2ccccc2)=C(Br)C1=O (stereo not drawn),inactive: > 100 µM
10,CC(=S)NNC(=O)c1ccncc1,inactive: > 100 µM
11,C/C=C1\C[C@@H]2C(OC)Nc3cc(O)c(OC)cc3C(=O)N2C1 (stereo partly drawn),active: 0.014 µM
12,C[C@H]1[C@H]2[C@H](C[C@@]3(C)C4=CC[C@H]5C(C)(C)[C@@H](OC6OCC(O)C(O)C6O)CC[C@@]56C[C@@]46CC[C@]23C)O[C@@]2(O)[C@@H]1OC(C)(C)[C@H]2O (stereo partly drawn),inactive: 4.17 µM
13,CCOc1ccc(NCc2cc(OC)c(OC)c(OC)c2)cc1,inactive: 3.52 µM
14,O=C1O[C@H]2[C@@H]3OC(=O)c4cc(O)c(O)c(O)c4-c4c(cc(O)c(O)c4O)C(=O)OC[C@H]2O[C@@H](OC(=O)c2cc(O)c(O)c(O)c2)[C@@H]3OC(=O)c2cc(O)c(O)c3c2[C@@H]2C1=CC(=O)C(O)(O)C2(O)O3 (stereo partly drawn),inactive: 17.1 µM
15,CC[C@](O)(CC(=O)O[C@H]1C(=O)O[C@@H]2C[C@H]3C(C)=CC(=O)[C@@H](O)[C@]3(C)[C@H]3[C@@]4(O)OC[C@]32[C@@H]1[C@@H](C)[C@H]4O)C(C)C,active: < 0.01 µM
16,O=C(NC12CC3CC(CC(C3)C1)C2)C(=O)c1c[nH]c2ccccc12,inactive: 17.2 µM

# Source: ChEMBL document CHEMBL1201862, “PubChem BioAssay data set” (2004)
